Data reported in the supplement of paper PMC4967469.
IC50 is the fitted dose that halves viability relative to control wells, and lower means more sensitive; a fit beyond the top or the lowest dose is shown as a bound at that dose. For AUC the same curve is integrated over the 256-fold range of doses and scaled to a fraction; values near 1 show little effect. For some of these results: A top dose marked as inferred is not printed in the source and was worked back from the curve model.

How the values were obtained:
Test in all cases: Viability of human cancer cell lines after 72 h of drug (GDSC screen)
Bexarotene = compound: C=C(c1ccc(C(=O)O)cc1)c1cc2c(cc1C)C(C)(C)CCC2(C)C [Bexarotene]; conditions: top dose 8 µM
Description: (§1)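 Human cancer cell lines in 384-well plates, medium with 10% serum, drug for 72 h over a 256-fold dose range (nine 2-fold or five 4-fold steps up to the top dose). Adherent lines were fixed and stained with the nucleic acid dye Syto60, suspension lines read with resazurin; signal relative to control wells, capped at 0 and 100%. One two-parameter sigmoid per drug and line, fitted in a mixed model over all curves with the slope shared within a line.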

GSK-650394 = compound: O=C(O)c1ccc(-c2c[nH]c3ncc(-c4ccccc4)cc23)cc1C1CCCC1 [GSK-650394]; conditions: top dose 16 µM; top dose inferred
Description: as §1

XAV 939 = compound: Oc1nc(-c2ccc(C(F)(F)F)cc2)nc2c1CSCC2 [XAV 939]; conditions: top dose 5 µM; top dose inferred
Description: as §1

NPK76-II-72-1 = compound: COc1cc(C(=O)NC2CCN(C)CC2)ccc1Nc1ncc2c(n1)N(C1CCCC1)C(C)CC(=O)N2C [NPK76-II-72-1]; conditions: top dose 10.24 µM; top dose inferred
Description: as §1

BMS-345541 = compound: Cc1ccc2nc(NCCN)c3ncc(C)n3c2c1 [BMS-345541]; conditions: top dose 16 µM
Description: as §1

YK 4-279 = compound: COc1ccc(C(=O)CC2(O)C(=O)Nc3c(Cl)ccc(Cl)c32)cc1 [YK 4-279]; conditions: top dose 10 µM
Description: as §1

Etoposide = compound: COc1cc([C@@H]2c3cc4c(cc3[C@@H](O[C@@H]3O[C@@H]5CO[C@@H](C)O[C@H]5[C@H](O)[C@H]3O)[C@H]3COC(=O)[C@H]23)OCO4)cc(OC)c1O [Etoposide]; conditions: top dose 16 µM
Description: as §1

AZD7762 = compound: NC(=O)Nc1cc(-c2cccc(F)c2)sc1C(=O)N[C@H]1CCCNC1 [AZD7762]; conditions: top dose 2 µM
Description: as §1

Cell Line | AUC (Bexarotene) | IC50 (Bexarotene) [µM] | AUC (GSK-650394) | IC50 (GSK-650394) [µM] | AUC (XAV 939) | IC50 (XAV 939) [µM] | AUC (NPK76-II-72-1) | IC50 (NPK76-II-72-1) [µM] | AUC (BMS-345541) | IC50 (BMS-345541) [µM] | AUC (YK 4-279) | IC50 (YK 4-279) [µM] | AUC (Etoposide) | IC50 (Etoposide) [µM] | AUC (AZD7762) | IC50 (AZD7762) [µM]
NB5 (neuroblastoma, adherent) | 0.987 | > 8 | 0.91 | > 16 | 0.982 | > 5 | 0.796 | 4.87 | 0.885 | > 16 | 0.547 | 0.838 | 0.842 | 11.5 | 0.801 | 0.99
NB10 (neuroblastoma, adherent) | 0.979 | > 8 | 0.925 | > 16 | 0.96 | > 5 | 0.805 | 5 | 0.904 | > 16 | 0.577 | 1.01 | 0.826 | 9.35 | 0.686 | 0.408
NB12 (neuroblastoma, adherent) | 0.931 | > 8 | 0.896 | > 16 | 0.851 | > 5 | 0.945 | > 10.2 | 0.827 | 14.8 | 0.79 | 6.24 | 0.44 | 0.65 | 0.926 | > 2
NB13 (neuroblastoma, adherent) | 0.985 | > 8 | 0.837 | 8.99 | 0.987 | > 5 | 0.67 | 1.79 | 0.927 | > 16 | 0.661 | 1.65 | 0.586 | 1.67 | 0.717 | 0.473
NB(TU)1-10 (neuroblastoma, adherent) | 0.993 | > 8 | 0.927 | > 16 | 0.993 | > 5 | 0.788 | 3.86 | 0.972 | > 16 | 0.992 | > 10 | 0.794 | 6.26 | 0.884 | 1.66
NCI-H69 (small cell lung carcinoma, suspension) | 0.983 | > 8 | 0.838 | 12.6 | 0.959 | > 5 | 0.911 | > 10.2 | 0.878 | > 16 | 0.695 | 2.37 | 0.741 | 5.36 | 0.938 | > 2
NCI-H82 (small cell lung carcinoma, suspension) | 0.971 | > 8 | 0.901 | > 16 | 0.975 | > 5 | 0.671 | 1.86 | 0.878 | 14.7 | 0.962 | > 10 | 0.942 | > 16 | 0.61 | 0.247
NCI-H209 (small cell lung carcinoma, suspension) | 0.921 | > 8 | 0.925 | > 16 | 0.927 | > 5 | 0.781 | 4.58 | 0.909 | > 16 | 0.88 | > 10 | 0.496 | 0.972 | 0.683 | 0.423
NCI-H211 (small cell lung carcinoma, adherent) | 0.982 | > 8 | 0.849 | 11.5 | 0.947 | > 5 | 0.354 | 0.255 | 0.868 | 14 | 0.828 | 5.91 | 0.423 | 0.619 | 0.808 | 0.999
NCI-H322M (lung adenocarcinoma, suspension) | 0.98 | > 8 | 0.987 | > 16 | 0.973 | > 5 | 0.983 | > 10.2 | 0.933 | > 16 | 0.947 | > 10 | 0.987 | > 16 | 0.903 | > 2
NCI-H345 (small cell lung carcinoma, suspension) | 0.983 | > 8 | 0.99 | > 16 | 0.989 | > 5 | 0.989 | > 10.2 | 0.99 | > 16 | 0.964 | > 10 | 0.979 | > 16 | 0.967 | > 2
NCI-H524 (small cell lung carcinoma, suspension) | 0.986 | > 8 | 0.941 | > 16 | 0.989 | > 5 | 0.756 | 3.17 | 0.888 | 14.6 | 0.591 | 1.08 | 0.965 | > 16 | 0.81 | 0.916
NCI-H526 (small cell lung carcinoma, suspension) | 0.99 | > 8 | 0.765 | 5.63 | 0.974 | > 5 | 0.451 | 0.474 | 0.76 | 5.43 | 0.976 | > 10 | 0.393 | 0.517 | 0.864 | 1.62
NCI-H596 (lung adenocarcinoma, adherent) | 0.957 | > 8 | 0.964 | > 16 | 0.972 | > 5 | 0.935 | > 10.2 | 0.893 | > 16 | 0.812 | 7.45 | 0.812 | 11.8 | 0.903 | > 2
NCI-H650 (lung adenocarcinoma, adherent) | 0.986 | > 8 | 0.762 | 6.25 | 0.985 | > 5 | 0.918 | > 10.2 | 0.833 | 11.8 | 0.682 | 2.14 | 0.774 | 6.95 | 0.848 | 1.72
NCI-H720 (lung carcinoid, suspension) | 0.99 | > 8 | 0.992 | > 16 | 0.985 | > 5 | 0.991 | > 10.2 | 0.989 | > 16 | 0.914 | > 10 | 0.989 | > 16 | 0.737 | 0.554
